Data on 57 compounds can be found in ChEMBL document CHEMBL4888484, “Replenishing the malaria drug discovery pipeline: Screening and hit evaluation of the MMV Hit Generation Library 1 (HGL1) against asexual blood stage Plasmodium falciparum ,using a nano luciferase reporter read-out” (2022).

Usually % Inhibition stands for the change of the read-out against control, counted positive when it falls.

Each structure is given as a SMILES string. Out of some 150,000 compounds screened, about 540 (0.36%) showed an effect of 50% or more. Some of the results follow.

The subject of this assay is Plasmodium falciparum. In words: Primary screen in NF54 nanoGlo assay, in single point, at 2uM, 72h; a lower Z score goes with more inhibition. In kind it is functional, Erythrocyte. To be noted: timepoint 72 hour.
On to `CNC(=O)c1cccc(NCc2ccc(-c3c(F)cccc3F)o2)c1C`, for which the “% Inhibition” value is recorded as -10% and the Z score is given as 1.01.

Consider `CC(C)CCn1cc(C(=O)N[C@@H](C)c2ccc(Cl)cn2)nn1`, for which the “% Inhibition” value was -22% and the Z score stood at 3.31.

For `O=C(Cn1ccnc1)N(c1ccccc1)C1CCCCC1`, the “% Inhibition” value is recorded as -10% and the Z score is listed as 1.15.

`CCNC(=O)N1CCC(Oc2ncnc3c2CCOCC3)CC1`: the “% Inhibition” value was -16% and the Z score is 2.45.

In the case of `CC(C)(C)OC(=O)NCC1CCCCC1O` (centres undefined), the “% Inhibition” value was -10% and the Z score amounted to 0.99.

For the compound `O=c1[nH]c2ncc(Br)cc2n1C1CCCC1`, the “% Inhibition” value was -3% and the Z score amounted to 0.48.

As to `Cc1nc(Cc2noc(-c3ccc4c(c3)N=S=N4)n2)no1`, the “% Inhibition” value was -5% and the Z score came to 0.68.

On to `Cc1ccc(C)c(NC(=O)c2ccc3c(c2)nnn3Cc2ccccc2C)c1`, for which the “% Inhibition” value is on record as -5% and the Z score is on record as 0.52.

Consider `Clc1ccccc1NC1(c2nnnn2C2CCCCC2)CCCCC1`, for which the “% Inhibition” value is on record as -37% and the Z score was found to be 4.36.

`CC(=O)Nc1ccc(-c2noc(C3CCCN(C(=O)C(NC(=O)c4ccco4)C(C)C)C3)n2)cc1` (centres undefined): the “% Inhibition” value is -4% and the Z score is listed as 0.5.

In the case of `CCCc1ccc(CNCC2(N(C)C)CCCCC2)o1`, the “% Inhibition” value is listed as -14% and the Z score is recorded as 1.35.

As to `COc1ccc([C@H]2N(C(=O)CN3CCOCC3)CCCN2S(=O)(=O)c2ccc(C)cc2)cc1`, the “% Inhibition” value is -15% and the Z score was 2.38.

As for `CCOC(=O)C1(CC2CC2)CCN(Cc2ccc(F)cc2)CC1`, the “% Inhibition” value is recorded as -3% and the Z score is 0.56.

`Cc1ccc(C)c(N2CCN(c3c(C(=O)N4CCCC4)cnc4ccc(F)cc34)CC2)c1`: the “% Inhibition” value is -12% and the Z score worked out at 1.52.

For the compound `C=CCNC(=O)N1CCc2nc(N3CCOCC3)nc(N3CCCCC3)c2C1`, the “% Inhibition” value was -12% and the Z score stood at 1.62.

Consider `CC(C)(C)OC(=O)N1CCC(CC(N)=O)CC1`, for which the “% Inhibition” value was -8% and the Z score stood at 1.43.

`COc1cccc(-c2noc3nc(C)cc(C(=O)NCCCn4ccc(C)n4)c23)c1`: the “% Inhibition” value is on record as 35% and the Z score is given as -1.21.

`CC(C)n1ccc(Cn2c(=O)n(C)c3ccccc32)n1`: the “% Inhibition” value is recorded as -2% and the Z score amounted to 0.2.

As for `C#CCCC(=O)N(C)CCOc1ccc(CC)cc1`, the “% Inhibition” value was -6% and the Z score came to 0.79.

For `CNC(=O)CCN1CCN(CC(F)(F)F)c2ccccc21`, the “% Inhibition” value is given as -16% and the Z score amounted to 1.69.

For the compound `O=C(Nc1ccccn1)c1cn(-c2ccccn2)c(=O)c2ccccc12`, the “% Inhibition” value is reported as -10% and the Z score turned out to be 1.1.

Take `Cc1cccc(C)c1NC(=O)CC(C)(C)C`: the “% Inhibition” value is on record as -4% and the Z score worked out at 0.47.

In the case of `CN(C)C(=O)NC[C@]1(O)CCCN(Cc2cnc3cc(O)ccc3c2)CC1`, the “% Inhibition” value is recorded as -9% and the Z score is reported as 1.22.

Turning to `CCNC(=O)N(Cc1c(-c2ccccc2)nn(C)c1Oc1ccccc1)C[C@H]1CCCO1`, the “% Inhibition” value is listed as -9% and the Z score came to 0.79.

Consider `CC[C@H](C)[C@H](NC(=O)Nc1cc(C(=O)OC)c(F)cc1F)C(=O)OC(C)(C)C`, for which the “% Inhibition” value was -4% and the Z score is on record as 0.31.

For the compound `COc1cc(C(=O)O)cc(-c2cccc3ncccc23)n1`, the “% Inhibition” value is -7% and the Z score is given as 1.07.

For the compound `COCCNCC(=O)NC1CCCCC1C(C)(C)C` (centres undefined), the “% Inhibition” value is -5% and the Z score is 0.48.

For the compound `N#CCN1CCN(Cc2nc(-c3cccs3)no2)CC1`, the “% Inhibition” value is -4% and the Z score is given as 0.74.

Take `Cc1nc2ccccc2nc1NC1CCN(CC(N)=O)CC1`: the “% Inhibition” value is 0% and the Z score was -0.03.

With `COC(=O)Nc1cccc(NC(=O)N[C@@H](C)[C@H]2COC(C)(C)O2)c1`, the “% Inhibition” value is given as -8% and the Z score stood at 1.72.

As to `c1ccc(COc2nc3c(s2)CCCC3)nc1`, the “% Inhibition” value is recorded as 7% and the Z score was -0.86.

Consider `C1=CC2=NN=C(c3ccccc3)CN2C=C1`, for which the “% Inhibition” value is recorded as -2% and the Z score was determined as 0.21.

As for `O=S(=O)(C1COC1)N(C1CC1)C1COC1`, the “% Inhibition” value is 2% and the Z score is -0.3.

Regarding `Cc1cc(O[C@H]2CCN(C(=O)c3ccc(=O)n(C)n3)C2)nc(C)n1`, the “% Inhibition” value is given as -1% and the Z score was determined as 0.16.

On to `Cc1ccc(O)cc1C(=O)N1CCC2(CCCC2)C1`, for which the “% Inhibition” value was -8% and the Z score was found to be 1.09.

For the compound `CC(C)CCOc1ccc([C@@H](CC(N)=O)CC(=O)O)cc1`, the “% Inhibition” value is listed as -9% and the Z score was 1.15.

For the compound `OCCC1CCN(c2ncc(-c3ccccc3)s2)CC1`, the “% Inhibition” value is -17% and the Z score stood at 2.69.

As to `CN1C(=O)CC[C@]2(C(=O)N3CCCC3)CCCC[C@@H]12`, the “% Inhibition” value is given as -4% and the Z score was determined as 0.34.

With `CC(C)c1ccc(-n2ncnc2CN2CCCCC2=O)cc1`, the “% Inhibition” value is given as 6% and the Z score is listed as -0.82.

As to `OCC#Cc1csc(CN2CC(c3ccccn3)C2)c1`, the “% Inhibition” value came to 7% and the Z score is -0.95.

Turning to `CC(C)c1ccccc1O[C@@H](C)C(N)=O`, the “% Inhibition” value is recorded as -5% and the Z score turned out to be 0.71.

Consider `Cc1c(C(=O)NCCCOC(C)C)cnn1C`, for which the “% Inhibition” value came to 1% and the Z score is -0.1.

Regarding `CC(C)C[C@@H](CNC(=O)c1ncoc1-c1ccccc1Cl)N1CCOCC1`, the “% Inhibition” value is recorded as -9% and the Z score came to 1.29.

With `c1ccc2sc(-c3nccn3Cc3nnc4n3CCCCC4)cc2c1`, the “% Inhibition” value is -9% and the Z score was determined as 1.66.

`CS(=O)(=O)c1ccc2nc(NC(=O)c3ccccc3-c3ccccc3)sc2c1`: the “% Inhibition” value amounted to 2% and the Z score is recorded as -0.29.

With `Cc1ccc(C(=O)NCCOCCn2cccn2)s1`, the “% Inhibition” value is reported as -5% and the Z score came to 0.54.

As for `Cc1ccsc1-c1nc(CN2CCC[C@@H]2C)c(C)o1`, the “% Inhibition” value is 3% and the Z score is reported as -0.38.

On to `Cc1nnsc1C(=O)NCCn1ccn2nccc12`, for which the “% Inhibition” value is -12% and the Z score was 1.54.

Regarding `CC1=NN(Cc2c(Cl)cccc2Cl)C(=O)C1C(=O)NC1CCS(=O)(=O)C1` (centres undefined), the “% Inhibition” value is on record as 4% and the Z score is -0.43.

As for `Cc1cccc(Cn2cccc2CN(C(=O)c2ccc(C(F)(F)F)cc2)[C@@H](C)C(C)C)c1`, the “% Inhibition” value was -5% and the Z score is 0.63.

On to `C[C@H]1CN(C(=O)c2ncc(F)cc2F)C[C@]1(O)C1CC1`, for which the “% Inhibition” value was 2% and the Z score is listed as -0.41.

Take `CCn1cnnc1CNC(=O)c1cncc(Br)c1`: the “% Inhibition” value is given as -2% and the Z score is 0.39.

`Cn1c(-c2nc(-c3ccccc3C(F)(F)F)no2)cccc1=O`: the “% Inhibition” value is recorded as -21% and the Z score is 4.03.

On to `CC1CCN(C[C@H]2CCCCCN2C(=O)c2cc(F)ccc2F)CC1`, for which the “% Inhibition” value was -1% and the Z score came out at 0.1.

`O=C(NC1CCc2ccccc21)N1CCCC1CC(O)c1ccco1` (centres undefined): the “% Inhibition” value was -1% and the Z score is recorded as 0.05.

On to `COc1cc2c(cc1Cl)-n1cccc1C1(CCNCC1)N2`, for which the “% Inhibition” value amounted to 37% and the Z score was -4.74.

For `COc1cc2ccncc2cc1OC(=O)c1cc(C#N)cn1C`, the “% Inhibition” value is given as -9% and the Z score was determined as 1.27.
